Experimental data taken from patent US9133171B2 (priority 2011, dated 2015).
Read-outs that look alike come from different tables or passages of the source.

Key:
[1] = system: HeLa, human cervical tumour cells; assay: cells; settings: read-out: Inhibition of HeLa cell proliferation
[2] = system: NCI-H460, human non-small cell lung carcinoma cells; settings: read-out: Inhibition of H460 cell proliferation
[3] = system: A2780, human ovarian carcinoma cells; settings: read-out: Inhibition of A2780 cell proliferation
[4] = system: Caco-2, human colorectal carcinoma cells; settings: read-out: Inhibition of Caco-2 cell proliferation
[5] = system: B16F10, mouse melanoma cells; settings: read-out: Inhibition of B16F10 cell proliferation
[6] = system: HeLa-MaTu-ADR, multidrug-resistant human cervical carcinoma cells; settings: read-out: Inhibition of HeLa-MaTu-ADR cell proliferation
[7] = system: HeLa, human cervical tumour cells; settings: read-out: Inhibition of HeLa cell proliferation
[8] = system: B16F10, mouse melanoma cells; assay: cells; settings: B16-F10, read-out: Inhibition of B16F10 cell proliferation
[9] = system: DU 145, hormone-independent human prostate carcinoma cells; assay: cells; settings: DU-145, read-out: Inhibition of DU145 cell proliferation
[10] = system: HeLa-MaTu-ADR, multidrug-resistant human cervical carcinoma cells; assay: cells; settings: read-out: Inhibition of HeLa-MaTu-ADR cell proliferation
[11] = system: A2780, human ovarian carcinoma cells; assay: cells; settings: A2780, read-out: Inhibition of A2780 cell proliferation
[12] = system: Caco-2, human colorectal carcinoma cells; assay: cells; settings: Caco-2, read-out: Inhibition of Caco-2 cell proliferation
[13] = system: NCI-H460, human non-small cell lung carcinoma cells; assay: cells; settings: NCI-H460, read-out: Inhibition of H460 cell proliferation

Row | SMILES | IC50 [1] [nM] | IC50 [2] [nM] | IC50 [3] [nM] | IC50 [4] [nM] | IC50 [5] [nM] | IC50 [6] [nM] | IC50 [7] [nM] | IC50 [8] [nM] | IC50 [9] [nM] | IC50 [10] [nM] | IC50 [11] [nM] | IC50 [12] [nM] | IC50 [13] [nM]
1 | COc1cc(F)ccc1-c1nc(Nc2cc(CS(C)(=O)=NC#N)cc(C(F)(F)C(F)(F)F)c2)ncc1F (racemic) [Example 46, (rac)-{[3-{[5-Fluoro-4-(4-fluoro-2-methoxyphenyl)pyrimidin-2-yl]amino}-5-(pentafluoroethyl)-benzyl](methyl)oxido-λ^6-sulfanylidene}cyanamide] | 899 |  |  |  |  |  |  |  |  |  |  |  | 
2 | COc1cc(F)ccc1-c1nc(Nc2cc(Br)cc(CS(C)(=N)=O)c2)ncc1F (single isomer, unassigned) [Example 31, N-{3-bromo-5-[(S-methylsulfonimidoyl)methyl]phenyl}-5-fluoro-4-(4-fluoro-2-methoxyphenyl)-pyrimidin-2-amine] |  | 90 | 1000 | 98 | 130 | 59 | 169 |  |  |  |  |  | 
3 | COc1cc(F)ccc1-c1nc(Nc2cc(CS(C)(=N)=O)cc(S(F)(F)(F)(F)F)c2)ncc1F (racemic) [Example 61, (rac)-5-Fluoro-4-(4-fluoro-2-methoxyphenyl)-N-{3-[(S-methylsulfonimidoyl)methyl]-5-(pentafluoro-λ^6-sulfanyl)phenyl}pyrimidin-2-amine] | 441 |  |  |  |  |  |  | 130 | 110 | 37 | 83 | 57 | 41
4 | COc1cc(F)ccc1-c1nc(Nc2cc(CS(C)(=O)=NC#N)cc(S(F)(F)(F)(F)F)c2)ncc1F (racemic) [Example 60, (rac)-{[3-{[5-Fluoro-4-(4-fluoro-2-methoxyphenyl)pyrimidin-2-yl]amino}-5-(pentafluoro-λ^6-sulfanyl)benzyl](methyl)oxido-λ6-sulfanylidene}cyanamide] | 96 |  |  |  |  |  |  | 120 | 92 | 68 | 38 | 91 | 66
5 | COc1cc(F)ccc1-c1nc(Nc2cc(Br)cc(CS(C)(=N)=O)c2)ncc1F (racemic) [Example 29, (rac)-N-{3-Bromo-5-[(S-methylsulfonimidoyl)methyl]phenyl}-5-fluoro-4-(4-fluoro-2-methoxy-phenyl)pyrimidin-2-amine] | 107 |  |  |  |  |  |  | 130 | 100 |  | 47 |  | 130
6 | COc1cc(F)ccc1-c1nc(Nc2cc(F)c(F)c(CS(C)(=O)=NC#N)c2)ncc1F (racemic) [Example 24, (rac)-[(2,3-Difluoro-5-{[5-fluoro-4-(4-fluoro-2-methoxyphenyl)pyrimidin-2-yl]amino}benzyl)-(methyl)oxido-λ^6-sulfanylidene]cyanamide] | 104 |  |  |  |  |  |  | 140 | 110 | 81 | 48 | 94 | 99
7 | CS(=N)(=O)Cc1cccc(Nc2ncc(F)c(-c3ccc(F)cc3OCc3ccc(F)cc3)n2)c1 (racemic) [Example 55, (rac)-5-Fluoro-4-[4-fluoro-2-[(4-fluorobenzyl)oxy]phenyl]-N-[3-{(S-methylsulfonimidoyl)methyl]-phenyl}pyrimidin-2-amine] | 796 |  |  |  |  |  |  |  |  |  |  |  | 
8 | CCS(=O)(Cc1cc(F)cc(Nc2ncc(F)c(-c3ccc(F)cc3OC)n2)c1)=NC#N (racemic) [Example 42, (rac)-[Ethyl(3-fluoro-5-{[5-fluoro-4-(4-fluoro-2-methoxyphenyl)pyrimidin-2-yl]amino}benzyl)-oxido-λ^6-sulfanylidene]cyanamide] | 126 |  |  |  |  |  |  | 33 | 61 | 34 | 41 | 30 | 34
9 | COc1cc(F)ccc1-c1nc(Nc2cc(CS(C)(=N)=O)cc(C(F)(F)F)c2)ncc1F (racemic) [Example 41, (rac)-5-Fluoro-4-(4-fluoro-2-methoxyphenyl)-N-[3-[(S-methylsulfonimidoyl)methyl]-5-(trifluoro-methyl)phenyl]pyrimidin-2-amine] | 102 |  |  |  |  |  |  | 220 | 150 | 110 | 42 | 150 | 120
10 | COc1cc(F)ccc1-c1nc(Nc2cc(Br)cc(CS(C)(=N)=O)c2)ncc1F (single isomer, unassigned) [Example 30, N-{3-bromo-5-[(S-methylsulfonimidoyl)methyl]phenyl}-5-fluoro-4-(4-fluoro-2-methoxyphenyl)-pyrimidin-2-amine] | 145 |  | 62 |  |  |  |  | 150 | 130 |  |  |  | 98
